# Reference: the supplement of paper PMC8183993
# Where a name gives a salt, the structure may show the parent alone. ± gives the standard deviation of the averaged measurements. The full ranking holds about 3,200 compounds; the median of “nuclei count (viability) relative to DMSO” is about 99, and the lowest 2% start at about 16. This is one part of the list.
# Tested on: U2OS
# Assay: nuclei count (viability) relative to DMSO (% of DMSO); higher = more viable cells
# Conditions: 10 µM; 24 h
# Procedure: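 Primary image-based screen in U2OS cells: compounds at 10 uM for 24 h, then a 1 h o-propargyl-puromycin (OPP) pulse, click labelling, and high-throughput microscopy. Mean cytoplasmic OPP intensity and nuclei count were normalised to DMSO wells within each plate (DMSO = 100) and averaged over triplicate plates.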
row,SMILES,nuclei count
1,Cc1cc(C(=O)NNCc2ccccc2)no1 [Isocarboxazid],109
2,O=C1CC2(CCCC2)CC(=O)N1CCNCC1COc2ccccc2O1 (centres undefined),104
3,CCOC(=O)[C@H](CCc1ccccc1)N[C@@H](C)C(=O)N1CCC[C@H]1C(=O)O [Enalapril],110
4,CCOC(=O)[C@H](CCc1ccccc1)N[C@@H](C)C(=O)N1CCC[C@H]1C(=O)O [Enalapril maleate],111
5,CO/N=C(\C(=O)N[C@@H]1C(=O)N2C(C(=O)O)=C(C[N+]3(C)CCCC3)CS[C@H]12)c1csc(N)n1 [Cefepime hydrochloride],88.7
6,C=CC(=O)Nc1ccc2ncnc(Nc3ccc(OCc4cccc(F)c4)c(Cl)c3)c2c1,73.2 ± 31
7,CC(Oc1c(Cl)cccc1Cl)C1=NCCN1 (centres undefined) [Lofexidine],111
8,CC1=C(CC(=O)O)c2cc(F)ccc2/C1=C\c1ccc([S+](C)[O-])cc1 (centres undefined) [Sulindac],92.1 ± 4.9
9,C=CC(=O)N1CCC[C@@H](n2nc(-c3ccc(Oc4ccccc4)cc3)c3c(N)ncnc32)C1,92.82 ± 0.64
10,CCc1cccc2c3c([nH]c12)C(CC)(CC(=O)O)OCC3 (centres undefined) [Etodolac (Lodine)],102
11,CCc1cccc2c3c([nH]c12)C(CC)(CC(=O)O)OCC3 (centres undefined) [Etodolac],110
12,Cc1noc(NS(=O)(=O)c2ccc(N)cc2)c1C [Sulfisoxazole],101 ± 3.1
13,CCC[C@H](NC(=O)[C@@H]1[C@H]2CCC[C@H]2CN1C(=O)[C@@H](NC(=O)[C@@H](NC(=O)c1cnccn1)C1CCCCC1)C(C)(C)C)C(=O)C(=O)NC1CC1 [Telaprevir (VX-950)],98.8
14,C[C@@H]1CN(CC(=O)Nc2ccc3c(c2)Cc2cccc(-c4cc(=O)cc(N5CCOCC5)o4)c2S3)C[C@H](C)O1,96
15,CC[N+](CC)(CC)CCC(O)(c1ccccc1)C1CCCCC1 (centres undefined) [Tridihexethyl chloride],99.6
16,CN(C)CCCO[C@@H]1[C@H]2OC(C)(C)O[C@H]2O[C@@H]1[C@H](O)CO [Amiprilose hydrochloride],105
17,C[C@]12CC[C@@H]3c4ccc(O)cc4CC[C@H]3[C@@H]1C[C@@H](O)[C@@H]2O [Estriol],106 ± 6.4
18,Cc1nc(N)sc1-c1ccnc(Nc2ccc(N3CCOCC3)cc2)n1,50.1
19,COc1ccc(CNC(=O)Nc2ncc([N+](=O)[O-])s2)cc1,96.8 ± 6.5
20,OCCOCCN1CCN(C(c2ccccc2)c2ccc(Cl)cc2)CC1 (centres undefined) [Hydroxyzine dihydrochloride],89.8
21,C=CC1=C(C(=O)O)N2C(=O)[C@@H](NC(=O)/C(=N\OCC(=O)O)c3csc(N)n3)[C@H]2SC1 [Cefixime],97.3
22,COc1c(OCCCN2CCOCC2)ccc2c1N=C(NC(=O)c1cnc(N)nc1)N1CCN=C21,93.2
23,[I-].[K+] [Potassium iodide],106
24,O=C1N(c2ccccc2)c2ccccc2C1(Cc1ccncc1)Cc1ccncc1 [Linopirdine dihydrochloride],103
25,CC(C)CCC[C@@H](C)[C@H]1CC[C@H]2[C@@H]3C(=O)C=C4C[C@@H](O)CC[C@]4(C)[C@H]3CC[C@]12C [7-Ketocholesterol],102

row,SMILES,nuclei count
1,Cc1cc(-n2c(=O)[nH]c(=O)n(C)c2=O)ccc1Oc1ccc(SC(F)(F)F)cc1 [Toltrazuril],112
2,Cc1ccccc1N1C(=O)c2cc(S(N)(=O)=O)c(Cl)cc2NC1C (centres undefined) [Metolazone],107
3,COc1nc(-c2ccc3c(c2)OCO3)n(-c2ccc(NC(=O)CSc3ccccc3)cc2)n1 [SecinH3],100
4,O=C(Nc1ccc(-c2ccnc(Nc3ccc(N4CCOCC4)cc3)n2)cc1)C1CCCN1 (centres undefined),94.3
5,CCS(=O)(=O)Nc1ccc2c(c1)/C(=C(/Nc1ccc(CN3CCCCC3)cc1)c1ccccc1)C(=O)N2 [Hesperadin],35.2
6,COc1ccc2[nH]c([S+]([O-])Cc3ncc(C)c(OC)c3C)nc2c1 (centres undefined) [Omeprazole],103.9 ± 0.25
7,Nc1cccc2c1CN(C1CCC(=O)NC1=O)C2=O (centres undefined) [Lenalidomide (Revlimid)],110
8,CC(=O)Nc1ccc(O)cc1 [Acetaminophen],105 ± 1.2
9,Brc1c(NC2=NCCN2)ccc2nccnc12,89.5
10,"Brc1c(NC2=NCCN2)ccc2nccnc12 [UK 14,304 tartrate]",108
11,CN(C)CCOC(=O)COc1ccc(Cl)cc1 [Meclofenoxate hydrochloride],102
12,CC(C)(C)c1cc(O)ccc1O [tert-Butylhydroquinone],107
13,N[C@H](C(=O)O)[C@H](OCc1ccccc1)C(=O)O (racemic),89.6
14,N=C(N)N/N=C/c1c(Cl)cccc1Cl [Guanabenz acetate],96 ± 2.9
15,"OC(CCN1CCCCC1)(c1ccccc1)C1CCCCC1 (centres undefined) [Trihexyphenidyl-D,L Hydrochloride]",99.4
16,CCCc1nc(C(C)(C)O)c(C(=O)O)n1Cc1ccc(-c2ccccc2-c2nnn[nH]2)cc1 [Olmesartan],101
17,OC[C@H]1NC[C@@H](O)[C@@H](O)[C@@H]1O [1-Deoxymannojirimycin hydrochloride],101
18,c1ccc2nc(C3=NCCN3)cnc2c1 [BU 239 hydrochloride],107
19,CCC(=O)OCC(=O)[C@@]1(OC(=O)CC)[C@H](C)C[C@H]2[C@H]3[C@H]([C@@H](O)C[C@@]21C)[C@@]1(C)C=CC(=O)C=C1C[C@H]3Cl [Alclometasone dipropionate],90.9
20,CN(CCOc1ccc(CC2SC(=O)NC2=O)cc1)c1ccccn1 (centres undefined) [Rosiglitazone Hydrochloride],103
21,CN(CCOc1ccc(CC2SC(=O)NC2=O)cc1)c1ccccn1 (centres undefined) [Rosiglitazone maleate],106
22,O=C(NCC(=O)N1CCCC1)Nc1ccc2cnccc2c1,36.9
23,CC(N)C12CC3CC(CC(C3)C1)C2 (centres undefined) [Rimantadine Hydrochloride],109
24,Fc1cc(-c2cccc3ncc(-c4cnn(C5CCNCC5)c4)nc23)cc(F)c1CN1CCOCC1,46
25,CCC(=O)NC[C@H](Cc1ccc(OCCc2nc(-c3ccccc3)oc2C)cc1)N/C(C)=C\C(=O)c1ccc(C(F)(F)F)cc1,104

row,SMILES,nuclei count
1,COc1ccc(C[C@@H]2c3cc(OC)c(OC)cc3CC[N@+]2(C)CCC(=O)OCCCCCOC(=O)CC[N@@+]2(C)CCc3cc(OC)c(OC)cc3[C@H]2Cc2ccc(OC)c(OC)c2)cc1OC [Cisatracurium besylate (Nimbex)],95.6
2,CCOC(=O)c1c(C)n(C)c2ccc(O)cc12 [Mecarbinate],105
3,Nc1cc(-c2ccncc2)c[nH]c1=O [Amrinone],97.5
4,Cc1ccc2c(c1)C(=O)C1(O)CCN(c3ccccc3)C1=N2 (racemic) [(±)-Blebbistatin],89.1
5,CN(C)[C@@H]1C(O)=C(C(N)=O)C(=O)[C@@]2(O)C(O)=C3C(=O)c4c(O)ccc(Cl)c4[C@@H](O)[C@H]3C[C@@H]12 [Demeclocycline hydrochloride],106
6,Cn1c([N+](=O)[O-])cnc1COC(N)=O [Ronidazole],109
7,O=C1c2ccccc2S(=O)(=O)N1CCCCN1CCN(c2ncccn2)CC1 [Ipsapirone],108 ± 6.1
8,COc1ccc(C(=O)NCc2ccc(OCCN(C)C)cc2)cc1OC [Itopride],94.2
9,N[C@@H](C(=O)N[C@@H]1C(=O)N2C(C(=O)O)=C(Cl)CS[C@H]12)c1ccccc1 [Cefaclor hydrate],101
10,O=C(O)c1cc(O)c2ccc(Cl)cc2n1 [7-Chlorokynurenic acid],97.9
11,Cc1cc(Nc2nc(N[C@@H](C)c3ncc(F)cn3)ncc2Cl)[nH]n1,49.6
12,COC[C@H](NC(=O)c1cnc(C)s1)C(=O)N[C@@H](COC)C(=O)N[C@@H](Cc1ccccc1)C(=O)[C@@]1(C)CO1 [Oprozomib (ONX 0912)],11.1
13,O=C(O)CCC/C=C\C[C@@H]1CO[C@H](C(F)(F)F)O[C@@H]1c1ccccc1O,102
14,CC(Oc1ccccc1)C(=O)N[C@@H]1C(=O)N2[C@@H]1SC(C)(C)[C@@H]2C(=O)O (some centres undefined) [Phenethicillin potassium salt],100
15,CC[C@@H]1/C=C(\C)C[C@H](C)C[C@H](OC)[C@H]2O[C@@](O)(C(=O)C(=O)N3CCCC[C@H]3C(=O)O[C@H](/C(C)=C/[C@@H]3CC[C@H](Cl)[C@H](OC)C3)[C@H](C)[C@@H](O)CC1=O)[C@H](C)C[C@@H]2OC [Pimecrolimus],106
16,CNCCC(Oc1ccc(C(F)(F)F)cc1)c1ccccc1 (centres undefined) [Fluoxetine hydrochloride],99.2 ± 1
17,Cc1nc2n(c(=O)c1CCN1CCC(c3noc4cc(F)ccc34)CC1)CCCC2 [Risperidone],77.4
18,C[C@@H](CN1CC(=O)NC(=O)C1)N1CC(=O)NC(=O)C1 [Dexrazoxane hydrochloride],92.8
19,C[C@@H](CN1CC(=O)NC(=O)C1)N1CC(=O)NC(=O)C1 [Dexrazoxane HCl],90.7
20,OCc1cc(C(O)CNCCCCCCOCCCCc2ccccc2)ccc1O (centres undefined) [Salmeterol],97.6 ± 3.6
21,C#CCN1C(C)=C(C(=O)OC)C(c2cccc([N+](=O)[O-])c2)C(C(=O)OCC)=C1C (centres undefined),99.3
22,CC(=O)OCC(=O)[C@@]12N=C(C)O[C@@H]1C[C@H]1[C@@H]3CCC4=CC(=O)C=C[C@]4(C)[C@H]3[C@@H](O)C[C@@]12C [Deflazacort (Calcort)],100
23,CC(=O)OCC(=O)[C@@]12N=C(C)O[C@@H]1C[C@H]1[C@@H]3CCC4=CC(=O)C=C[C@]4(C)[C@H]3[C@@H](O)C[C@@]12C [Deflazacort],106
24,O=C(O)Cc1sc(-c2ccccc2)nc1-c1ccc(Cl)cc1 [Fentiazac],97.7
